Test results from the supplement of paper PMC12217912.
This is one part of the list. Sequences were assembled here from the parent chain. Values near 0.05 are background.

B1: TEV protease; numbered along this chain (parent)
chain: MGESLFKGPRDYNPISSSICHLTNESDGHTTSLYGIGFGPFIITNKHLFRRNNGTLVVQSLHGVFKVKDTTTLQQHLVDGRDMIIIRMPKDFPPFPQKLKFREPQREERICLVTTNFQTKSMSSMVSDTSCTFPSGDGIFWKHWIQTKDGQCGSPLVSTRDGFIVGIHSASNFTNTNNYFTSVPKNFMELLTNQEAQQWVSGWRLNADSVLWGGHKVFMVKPEEPFQPVKEATQL

Variants of: B1
Assay: raw area under fraction-flipped curve 0-4 h after induction (AUC4h, not background-subtracted), DNA-recorder readout of cleavage of the substrate (dimensionless); higher = more cleavage of the substrate by the protease variant
Conditions: temperature: 34 °C; time window: 0-4 h after rhamnose induction
Protocol: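 In vivo DNA recorder in E. coli TOP10(DE3) ΔrhaA at 34 °C. Each TEVp single-site mutant (parent TEVp 0) is paired with a single-site variant of the 7-mer TEVs (canonical ENLYFQ|S). The substrate sits between flexible linkers in a Bxb1-sfGFP-TEVs-SsrA fusion, so cleavage stabilises Bxb1 and speeds flipping of a recombination array, read by NGS. The value is the raw area under the fraction-flipped curve over 0-4 h after rhamnose induction (AUC4h), with ≥20 reads per time point. It is not background-subtracted; inactive controls average about 0.047.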
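Further: Bxb1 expression induced with 0.2% (w/v) L-rhamnose at OD600 near 0.5, cultures sampled hourly, flipped fraction per protease–substrate barcode pair counted by paired-end Illumina sequencing.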

Row | Variant | area with substrate ENLYFAS | area with substrate ENLYFDS | area with substrate ENLYFES | area with substrate ENLYFFS | area with substrate ENLYFHS | area with substrate ENLYFIS | area with substrate ENLYFKS | area with substrate ENLYFMS | area with substrate ENLYFNS | area with substrate ENLYFRS | area with substrate ENLYFTS | area with substrate ENLYFVS | area with substrate ENLYFWS | area with substrate ENLYFYS | area with substrate ENLYFCS | area with substrate ENLYFLS | area with substrate ENLYFPS | area with substrate ENLYFSS | area with substrate ENLYFGS
1 | F117N | 0.0679 | 0.0467 | 0.101 | 0.066 | 0.058 | 0.0711 | 0.0651 | 0.072 | 0.0645 | 0.0419 | 0.0542 | 0.0532 | 0.0234 | 0.006 | – | – | – | – | –
2 | C152E | 0.0503 | 0 | 0.064 | 0.0767 | 0.0549 | 0.0582 | – | 0.0585 | 0.0647 | 0.0717 | 0.0563 | 0.0594 | 0.0528 | 0.0517 | 0.0388 | 0.0597 | 0.0575 | 0.0694 | –
3 | C152G | 0.0586 | 0.0598 | 0.0615 | 0.0719 | 0.0628 | 0.0573 | 0.075 | 0.0599 | 0.0638 | 0.0563 | 0.0598 | – | 0.0512 | 0.0649 | 0.0543 | 0.0571 | 0.0663 | – | –
4 | C152A | 0.0396 | 0.0577 | 0.0499 | 0.0702 | – | 0.0576 | 0.051 | 0.0561 | 0.0613 | 0.0534 | – | 0.0608 | 0.0534 | – | 0.0632 | 0.0672 | 0.0582 | – | –
5 | L112F | 0.0518 | – | 0.0611 | 0.0681 | – | – | – | 0.077 | 0.0496 | – | 0.0399 | 0.0598 | 0.0629 | – | 0.0626 | – | 0.0606 | 0.0552 | –
6 | L112N | 0.0604 | – | 0.0619 | 0.0647 | 0.0706 | 0.0473 | 0.042 | 0.0586 | 0.0582 | 0.0527 | 0.0574 | 0.048 | 0.0514 | 0.053 | 0.0559 | 0.0425 | 0.0615 | – | 0.0533
7 | L112Q | 0.0374 | 0.0615 | 0.0702 | – | – | 0.0497 | 0.0586 | 0.0584 | 0.0434 | 0.0736 | 0.0478 | 0.0627 | – | 0.072 | 0.0666 | 0.0613 | 0.063 | 0.0405 | –
8 | L112H | 0.0546 | 0.0642 | 0.0664 | 0.0729 | 0.0812 | 0.0572 | – | 0.0601 | 0.0694 | 0.0662 | 0.0596 | 0.03 | – | – | – | – | 0.0622 | 0.0642 | –
9 | L112C | 0.06 | 0.0655 | 0.0654 | 0.0652 | – | 0.0588 | 0.0619 | 0.0673 | 0.0524 | 0.0564 | 0.062 | – | 0.0518 | 0.0465 | 0.0578 | – | 0.0476 | – | –
10 | L112I | 0.0842 | 0.0585 | 0.0626 | 0.0686 | – | 0.0501 | 0.0543 | 0.0385 | – | 0.066 | 0.0599 | 0.0831 | – | – | 0.0587 | – | – | – | 0.0589
11 | P134H | 0.0633 | – | 0.0533 | 0.0758 | 0.0614 | 0.0574 | 0.0633 | 0.0492 | 0.0491 | 0.0544 | 0.0693 | 0.0626 | 0.0612 | 0.0618 | 0.0576 | 0.0408 | 0.0645 | – | 0.0582
12 | Q105W | 0.0566 | 0.0605 | 0.0627 | 0.0777 | 0.0657 | 0.0622 | 0.0569 | 0.0627 | 0.0685 | 0.0549 | 0.0646 | 0.0791 | 0.0517 | 0.0673 | 0.0481 | – | 0.0585 | 0.0427 | –
